# Source: PubChem BioAssay AID1030 (National Center for Advancing Translational Sciences (NCATS), 2008)
# Out of some 220,000 compounds screened, about 16,000 (7.3%) were called active. The shares of active, inactive and inconclusive entries below differ from those in the screen. Calls come from the whole dose curve; as a rule, active = well fitted inhibition curve with a large enough effect (not every such curve was filed as active); inconclusive = small, poorly fitted or top-dose-only effect, or another doubt; inactive = no such curve, though single readings can be large or run the other way. Potencies of inconclusive entries are left out as doubtful fits.
# Biological target: Aldehyde dehydrogenase 1A1 (Homo sapiens) (UniProt P00352)
# Sequence of UniProt P00352 (P00352 whole entry, looked up): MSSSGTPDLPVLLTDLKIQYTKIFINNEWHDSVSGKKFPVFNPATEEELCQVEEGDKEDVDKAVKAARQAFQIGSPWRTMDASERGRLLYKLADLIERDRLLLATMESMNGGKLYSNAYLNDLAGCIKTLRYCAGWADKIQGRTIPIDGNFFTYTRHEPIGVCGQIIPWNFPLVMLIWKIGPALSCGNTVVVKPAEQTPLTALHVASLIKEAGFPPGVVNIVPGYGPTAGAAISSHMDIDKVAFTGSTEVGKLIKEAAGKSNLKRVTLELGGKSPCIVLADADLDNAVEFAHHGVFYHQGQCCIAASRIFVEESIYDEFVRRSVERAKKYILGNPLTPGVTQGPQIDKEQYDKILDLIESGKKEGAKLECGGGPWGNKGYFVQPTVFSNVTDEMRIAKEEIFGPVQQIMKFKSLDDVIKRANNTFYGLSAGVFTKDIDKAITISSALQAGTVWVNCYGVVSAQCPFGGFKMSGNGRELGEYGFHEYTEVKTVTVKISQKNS
# Experiment: qHTS Assay for Inhibitors of Aldehyde Dehydrogenase 1 (ALDH1A1)
# Conditions: Purified ALDH1A1, NADH fluorescence, propionaldehyde substrate; series mostly up to 75.3 µM
# Potency is the fitted concentration of half-maximal effect; tags give direction and shape of the fitted curve.
row,SMILES,Potency
1,COCc1[nH]nc2c1C(c1ccc(OC)cc1)C(C#N)=C(N)O2 (stereo not given),inactive
2,CC(C(=O)Nc1ccccc1-c1ccccc1)N1CCCCC1 (stereo not given),active: 20 µM
3,COc1ccccc1OCCCCN1CCN(C(c2ccccc2)c2ccccc2)CC1,"inconclusive [inhibitor, single point]"
4,COc1cc(/C=C(\C#N)c2nc3ccccc3s2)ccc1OCC(=O)Nc1ccccc1,inactive
5,O=C1NC(c2ccccc2)=C(c2ccc3ccccc3n2)C(c2ccccc2)N1 (stereo not given),inactive
6,Cc1nn(CC(=O)NC(C)C)c(C)c1[N+](=O)[O-],inactive
7,O=C(Oc1ccccc1)c1ccc2c(c1)C(=O)N(Cc1ccncc1)C2=O,"inconclusive [inhibitor, single point]"
8,Cc1cc(O)c(N)c(C)c1Cl,"inconclusive [inhibitor, single point]"
9,O=C(NC(=S)Nc1ccc(-c2nc3ncccc3o2)cc1)c1ccccc1F,"inconclusive [inhibitor, single point]"
10,COc1ccc(OC)c(S(=O)(=O)N(C)CC(=O)Nc2cc(Cl)ccc2OC)c1,"inconclusive [inhibitor, single point]"
11,Cc1ccc(CN(CC(=O)N/N=C/c2ccccc2[N+](=O)[O-])S(=O)(=O)c2ccc(C)cc2)cc1,"inconclusive [inhibitor, single point]"
12,O=c1cc(CN2CCN(S(=O)(=O)c3ccc4ccccc4c3)CC2)nc2sccn12,inactive
13,Cc1ccccc1C(=O)NNC(=O)Nc1ccccc1,inactive
14,CCN(CC)CC(=O)Nc1ccc(Oc2ccc(NC(=O)CN(CC)CC)cc2)cc1,"inconclusive [inhibitor, single point]"
15,N/C(=N\OC(=O)c1ccco1)c1ccc(Br)cc1,active: 3.16 µM
16,CCc1nnc(NC(=O)CSc2nnc(-c3ccco3)n2CCOC)s1,"inconclusive [inhibitor, single point]"
17,Cc1cccn2cc(-c3c[nH]c4ccccc34)nc12,"inconclusive [inhibitor, partial curve]"
18,CSc1cccc(NC(=O)c2nnn(Cc3ccccc3)c2N)c1,inactive
19,O=C(CSc1cccc(C(F)(F)F)c1)Nc1cc(S(=O)(=O)N2CCCC2)ccc1Cl,"inconclusive [inhibitor, partial curve]"
20,Cc1cc(C)n(CC(O)CN2C(=O)NC(C)(C)C2=O)n1 (stereo not given),inactive
21,COc1cc(CNC23CC4CC(CC(C4)C2)C3)ccc1OCc1ccccc1,inactive
22,Cc1ccc(C(=O)NC(=S)NCc2ccco2)cc1,"inconclusive [inhibitor, single point]"
23,CCCc1cc(=O)oc2cc(C)cc(O)c12,active: 8.91 µM
24,O=C(NC1CCCc2ccccc21)C1CCN(S(=O)(=O)c2ccccc2)CC1 (stereo not given),"inconclusive [inhibitor, partial curve]"
25,COc1cc2c(cc1NC(=O)COC(=O)Cn1cnc3ccccc31)oc1ccccc12,active: 11.2 µM

row,SMILES,Potency
1,N#CC1=C(N)Oc2cc(O)c(C=Nc3ccccc3)cc2C1c1ccccc1 (stereo not given),"inconclusive [inhibitor, single point]"
2,Cn1c(Cc2cccs2)nnc1SCC(=O)N1CCc2ccccc21,inactive
3,Cc1cc(N2CCOCC2)nc2ccc(NC(=O)C3CCC(C)CC3)cc12 (stereo not given),"inconclusive [inhibitor, partial curve]"
4,COc1cccc(C(=O)Nc2nc(-c3ccncc3)cs2)c1,active: 20 µM
5,CCOC(=O)N1CCN(C(=O)CSc2nc(-c3cccc(C)c3)ns2)CC1,"inconclusive [inhibitor, single point]"
6,COCc1cc(C)nc2sc(C(=O)N3CCCC3)c(N)c12,"inconclusive [inhibitor, partial curve]"
7,Cc1cc(/C=C2/C(=O)NN(c3ccccc3)C2=O)c(C)n1-c1cccc(O)c1,"inconclusive [inhibitor, partial curve]"
8,COc1cccc(C2NC(=S)NC3=C2CCc2ccccc23)c1 (stereo not given),active: 0.224 µM
9,COc1cc(OC)cc(C(=O)N[C@H](C(=O)Nc2cc(C)cc(C)c2)C(C)C)c1,inactive
10,O=C(N1CCCCCC1)N1CCN(S(=O)(=O)N2CCCCC2)CC1,"inconclusive [inhibitor, single point]"
11,CCCc1nn(-c2cc(Cl)ccc2OC)c2c1C(=O)CCC2,inactive
12,CC1CCc2c(sc3ncnc(SCC(=O)N4CCN(C(=O)c5ccco5)CC4)c23)C1 (stereo not given),"inconclusive [inhibitor, single point]"
13,Cc1cccc(-n2c(CCc3ccccc3)nnc2SCC(=O)c2ccccc2)c1,"inconclusive [inhibitor, single point]"
14,CSC(=NC#N)N1CCN(c2ccc(Cl)cc2)CC1,"inconclusive [inhibitor, single point]"
15,Cc1cccc(N2CCN(C(=O)CN3CCOc4ccccc43)CC2C)c1 (stereo not given),"inconclusive [inhibitor, single point]"
16,O=C(NCCCn1ccnc1)c1cc(-c2ccc(Br)cc2)on1,"inconclusive [inhibitor, single point]"
17,NS(=O)(=O)c1cccc(NC(=S)NC(=O)C23CC4CC(CC(C4)C2)C3)c1,active: 28.2 µM
18,CCOC(=O)C1=C(O)C(=O)N(Cc2ccc(C(C)(C)C)cc2)CC1,active: 14.1 µM
19,Cc1cc(C)c(S(=O)(=O)c2ccccc2)c(OC(=O)c2c(Cl)cccc2Cl)n1,inactive
20,CCN(CC)C(=O)CSc1nc2cccnc2n1-c1ccccc1OC,"inconclusive [inhibitor, partial curve]"
21,CC1=NN(Cc2ccccc2)C(=O)/C1=C\c1ccc(N(C)C)cc1,active: 14.1 µM
22,CC(C)CCNC(=O)NC(=O)COC(=O)CCN=C1NS(=O)(=O)c2ccccc21,inactive
23,CC1(C)CC(=O)C(N=Nc2cc(S(=O)(=O)N3CCOCC3)ccc2Cl)=C(O)C1,active: 0.1 µM
24,CCN1C(=O)/C(=C2\SC(=S)N(CC3CCCO3)C2=O)c2ccccc21 (stereo not given),"inconclusive [inhibitor, full curve]"
25,Cc1ccc(S(=O)(=O)N(C)c2ccc(OCC(=O)Nc3nnc(C4CC4)s3)cc2)cc1,"inconclusive [inhibitor, full curve]"

row,SMILES,Potency
1,CCOc1cc2nc(-c3ccc(OC)c(OC)c3)nc(N3CCOCC3)c2cc1OC,"inconclusive [inhibitor, partial curve]"
2,Cc1ccc(S(=O)(=O)N2CC(O)CC2C(=O)OCc2nc3sc(C)c(C)c3c(=O)[nH]2)cc1 (stereo not given),"inconclusive [inhibitor, partial curve]"
3,CCOc1ccc(NC(=S)Nc2cc(-c3ccccc3)[nH]n2)cc1,active: 12.6 µM
4,Cc1ccc[n+](CC2OCc3ccccc3CO2)c1,inactive
5,N#Cc1nc(-c2ccc(OCc3ccc(Cl)cc3)cc2)oc1NCc1cccnc1,"inconclusive [inhibitor, single point]"
6,CCOc1ccc(CNC(=S)N/N=C/c2ccncc2)cc1,inactive
7,Cc1ccc(OCC(=O)NCC(=O)Nc2ccc(F)c(F)c2F)c([N+](=O)[O-])n1,inactive
8,Cc1ccc(S(=O)(=O)N2CCCCC2C(=O)Nc2nncs2)cc1 (stereo not given),"inconclusive [inhibitor, partial curve]"
9,CC(=O)Nc1ccc(Nc2cc(C)nc3c(-c4ccc(Cl)cc4)c(C)nn23)cc1,"inconclusive [inhibitor, single point]"
10,c1ccc(-c2ncnc3cc4n(c23)CCC4)cc1,"inconclusive [inhibitor, single point]"
11,CC(C)(C)Sc1ccc2nc3c(n2c1)CCCC3,"inconclusive [inhibitor, partial curve]"
12,CCCn1c(SCC(=O)NCCc2ccc(Cl)cc2Cl)n[nH]c1=O,"inconclusive [inhibitor, single point]"
13,Brc1ccccc1-c1nnc(CSc2nnnn2-c2ccccc2)o1,active: 10 µM
14,O=C(COC(=O)c1ccc(Br)o1)Nc1ccc(S(=O)(=O)N2CCCC2)cc1,"inconclusive [inhibitor, partial curve]"
15,COc1ccc(-n2nnc3c(SCC(=O)OCc4ccccc4)ncnc32)cc1,inactive
16,COc1ccc(OC)c(CNc2nc3ccccc3n2CCN2CCCCC2)c1,inactive
17,Cc1ccc(-n2c(N)c(C(=O)NCc3ccco3)sc2=S)cc1,"inconclusive [inhibitor, single point]"
18,COc1ccc(Nc2nc(-c3cccs3)cs2)c(OC)c1,"inconclusive [inhibitor, single point]"
19,COC(=O)c1nn2c(C(F)(F)F)cc(-c3ccc(Br)o3)nc2c1Br,active: 14.1 µM
20,CC(=O)c1sc(NC(=O)C=C(C)C)nc1C,"inconclusive [inhibitor, partial curve]"
21,CCOC(=O)c1c(NC(=O)C2C3CCC(O3)C2C(=O)O)sc(C)c1-c1ccc(C)cc1 (stereo not given),inactive
22,CCOC(=O)c1c(C)nc(SC)c(C#N)c1-c1ccccc1,"inconclusive [inhibitor, partial curve]"
23,CCOc1ccc(C(=O)c2ccc(O)c(O)c2O)cc1,active: 9.46 µM
24,Cc1ccc(/C=C2/NC(=O)N(Cc3ccccc3)C2=O)s1,"inconclusive [inhibitor, partial curve]"
25,Clc1cccc(N2CCN(c3nnnn3-c3ccccc3)CC2)c1,"inconclusive [inhibitor, single point]"
